{"source": "patent US20220411514A1", "about": "“ANTI-GAL3 ANTIBODIES AND METHODS OF USE FOR INSULIN RESISTANCE” (TrueBinding, Inc., priority 2021, published 2022)", "molecules": {"B1": {"name": "19D9.2E5: anti-Gal3 antibody (antibody)", "heavy": "QIQLVQSGPELKKPGETVKISCKASGYTFTTYGMGWVKQAPGKGLKWMGWINTYSGVPTYADDFKGRFAFSLETSTSTAYLQINNLKNEDMATYFCATPYEYDGAYWGQGTLVTVSAASTKGPSVFPLAPCSRSTSESTAALGCLVKDYFPEPVTVSWNSGALTSGVHTFPAVLQSSGLYSLSSVVTVPSSSLGTKTYTCNVDHKPSNTKVDKRV[in this place human IgG4 Fc with S228P (EU numbers)]", "light": "DVVMTQTPLTLSVTIGQPASISCKSSQSLLHSDGKTYLNWLLQRPGQPPKRLMYLVSTLDSGVPDRFTGSGSGTDFTLKISRVEAEDLGVYYCWQGTHFPLTFGAGTKPERTVAAPSVFIFPPSDEQLKSGTASVVCLLNNFYPREAKVQWKVDNALQSGNSQESVTEQDSKDSTYSLSSTLTLSKADYEKHKVYACEVTHQGLSSPVTKSFNRGEC", "modifications": "19D9.2E5 heavy chain peptide sequence; 19D9.2E5 light chain peptide sequence", "notes": "anti-Gal3 antibody"}, "B2": {"name": "6H6.2D6: anti-Gal3 antibody (antibody)", "heavy": "QIQLVQSGPELKKPGETVKISCKASGYTFTTYGMSWVKQAPGKGLKWMAWINTYSGVPTYADDFKGRFAFSLETSASTAYLQINNLTNEDTATYFCARGPYAMDYWGQGTSVTVSSASTKGPSVFPLAPCSRSTSESTAALGCLVKDYFPEPVTVSWNSGALTSGVHTFPAVLQSSGLYSLSSVVTVPSSSLGTKTYTCNVDHKPSNTKVDKRV[in this place human IgG4 Fc with S228P (EU numbers)]", "light": "DIQMTQTTSSLSASLGDRVTISCSASQGISNYLNWYQQKPDGTVKLLIYYTSSLHSGVPSRFSGSGSGTDYSLTISNLEPEDIATYYCQQYSELPYTFGSGTKLEIKRTVAAPSVFIFPPSDEQLKSGTASVVCLLNNFYPREAKVQWKVDNALQSGNSQESVTEQDSKDSTYSLSSTLTLSKADYEKHKVYACEVTHQGLSSPVTKSFNRGEC", "modifications": "6H6.2D6 heavy chain peptide sequence; 6H6.2D6 light chain peptide sequence", "notes": "anti-Gal3 antibody"}, "B3": {"name": "13H12.2F8: anti-Gal3 antibody (antibody)", "heavy": "QIQLVQSGPELKKPGETVKISCKASGYTFTTYGMSWVKQAPGKGLKWMGWINTYSGVPTYADDFKGRFAFSLETSASTAYLQINNLKNEDTATYFCAVPYEYDGAYWGQGTLVTVSAASTKGPSVFPLAPCSRSTSESTAALGCLVKDYFPEPVTVSWNSGALTSGVHTFPAVLQSSGLYSLSSVVTVPSSSLGTKTYTCNVDHKPSNTKVDKRV[in this place human IgG4 Fc with S228P (EU numbers)]", "light": "DVVMTQTPLTLSVTIGQPASISCKSSQSLFHSDGKTYLNWLLQRPGQSPKRLIYLVSKLDSGVPDRFTGSGSGTDFTPKISRVEDEDLGVYYCWQGTHFPLTFGAGTKLEMKRTVAAPSVFIFPPSDEQLKSGTASVVCLLNNFYPREAKVQWKVDNALQSGNSQESVTEQDSKDSTYSLSSTLTLSKADYEKHKVYACEVTHQGLSSPVTKSFNRGEC", "modifications": "13H12.2F8 heavy chain peptide sequence; 13H12.2F8 light chain peptide sequence", "notes": "anti-Gal3 antibody"}, "B4": {"name": "847.14H4: anti-Gal3 antibody (antibody)", "heavy": "QIQLVQSGPELTKPGETVKISCKASGYTFTDYGMNWVRQAPGETLKWMGWINTYTGEPTYADDFKGRFAFSLESSASTAYLQINNLKNEDVATYFCARYPMDYWGQGTSVTVSSASTKGPSVFPLAPCSRSTSESTAALGCLVKDYFPEPVTVSWNSGALTSGVHTFPAVLQSSGLYSLSSVVTVPSSSLGTKTYTCNVDHKPSNTKVDKRV[in this place human IgG4 Fc with S228P (EU numbers)]", "light": "QAVVTQESALTTSPGETVTLTCRSSTGAVTTSNYANWVQEKPDHLFTGLIGGTNNRAPGVPARFSGSLIGDKAALTITGAQTEDEAIYFCALWYSNHLVFGGGTKLTVLRTVAAPSVFIFPPSDEQLKSGTASVVCLLNNFYPREAKVQWKVDNALQSGNSQESVTEQDSKDSTYSLSSTLTLSKADYEKHKVYACEVTHQGLSSPVTKSFNRGEC", "modifications": "847.14H4 heavy chain peptide sequence; F847C.4B10/847.14H4 light chain peptide sequence", "notes": "anti-Gal3 antibody"}, "B5": {"name": "F847C.11B1: anti-Gal3 antibody (antibody)", "heavy": "EVQLQQSGPELVKPGASVKISCKASGNTFTDHNMHWVKQSHGKSLEWIGYIYPYNGGTGYNQKFKSKATLTVDNSSSTVYMELRSLTSEDSAVYYCARGEYDYLAWFAYWGQGTLVTVSAASTKGPSVFPLAPCSRSTSESTAALGCLVKDYFPEPVTVSWNSGALTSGVHTFPAVLQSSGLYSLSSVVTVPSSSLGTKTYTCNVDHKPSNTKVDKRV[in this place human IgG4 Fc with S228P (EU numbers)]", "light": "EIVLTQSPASLSVTTGEKVTIRCITSIDIDDDMNWYQQKPGEPPKLLISEGNTLRPGVPSRFSSSGYGTDFVFTIENTLSEDVADYYCLQSDNKPLTFGAGTKLELKRTVAAPSVFIFPPSDEQLKSGTASVVCLLNNFYPREAKVQWKVDNALQSGNSQESVTEQDSKDSTYSLSSTLTLSKADYEKHKVYACEVTHQGLSSPVTKSFNRGEC", "modifications": "F847C.11B1 heavy chain peptide sequence; F847C.11B1 light chain peptide sequence", "notes": "anti-Gal3 antibody"}, "B6": {"name": "24D12.2H9: anti-Gal3 antibody (antibody)", "heavy": "QVQLKQSGPGLVQPSQSLSITCTVSGFSLTSYGVHWVRQAPGKGLEWLGVIWSGGSTDYNAAFMSRLSISKDNSKSQVFFKMNSLQADDTAIYYCAKSPDGYDVAWFGYWGQGTLVTVSAASTKGPSVFPLAPCSRSTSESTAALGCLVKDYFPEPVTVSWNSGALTSGVHTFPAVLQSSGLYSLSSVVTVPSSSLGTKTYTCNVDHKPSNTKVDKRV[in this place human IgG4 Fc with S228P (EU numbers)]", "light": "DIVMTQSHKFMSTSVGDRVSITCKASQDVRTAVAWYQQKPGQSPKLLIYWASTRHTGVPDRFTGSGSGTDFTLTLSNVQSEDLADYFCQQYSSYPWTFGGGTKLEIKRTVAAPSVFIFPPSDEQLKSGTASVVCLLNNFYPREAKVQWKVDNALQSGNSQESVTEQDSKDSTYSLSSTLTLSKADYEKHKVYACEVTHQGLSSPVTKSFNRGEC", "modifications": "24D12.2H9 heavy chain peptide sequence; 24D12.2H9 light chain peptide sequence", "notes": "anti-Gal3 antibody"}, "B7": {"name": "6B3.2D3: anti-Gal3 antibody (antibody)", "heavy": "QVQLKQSGPGLVQPSQSLSITCTVSGFSLTSYGVHWVRQPPGKGLEWLGVIWSGGSTDYNAAFISRLSISKDNSKSQVFFKMNSLQADDTAIYYCAKGPYDYDLGWFAYWGQGTLVTVSAASTKGPSVFPLAPCSRSTSESTAALGCLVKDYFPEPVTVSWNSGALTSGVHTFPAVLQSSGLYSLSSVVTVPSSSLGTKTYTCNVDHKPSNTKVDKRV[in this place human IgG4 Fc with S228P (EU numbers)]", "light": "SIVMTQTPKFLLVSAGDRVTITCKASQSVSNDVAWYQQKPGQSPKLLIYYASNRYTGVPDRFTGSGYGTDFTFTISTVQAEDLAVYFCQQDYTSPYTFGGGTKLEIKRTVAAPSVFIFPPSDEQLKSGTASVVCLLNNFYPREAKVQWKVDNALQSGNSQESVTEQDSKDSTYSLSSTLTLSKADYEKHKVYACEVTHQGLSSPVTKSFNRGEC", "modifications": "6B3.2D3 heavy chain peptide sequence; 6B3.2D3 light chain peptide sequence", "notes": "anti-Gal3 antibody"}}, "key": {"hGal3 peptide": {"molecular_target": "T1, hGal3 peptide (Homo sapiens, UniProt P17931)", "T1 construct": "a library of 24 amino acid peptides representing portions of Gal3", "experiment": "Gal3 peptide library binding ELISA (Example 2)", "procedure": "To identify the epitopes to which Gal3 antibodies with and without Gal3-INSR blocking activity bound, a library of 24 amino acid peptides representing portions of Gal3, depicted in FIG. 18, was produced and the ability of each peptide to bind Gal3 antibodies was evaluated by ELISA. At least 2 μg/ml of hGal3 peptide in 50 μl of PBS or 0.1 μg/ml of full-length human Gal3 protein (GenScript) and human Galectin-3 protein (Acro Biosystems, GA3-H5129) were diluted in PBS (Corning, 21-030-CM) to concentrations of at least 2 μg/ml or 0.1 μg/ml, respectively, and added to the wells of a 96-well ELISA plate (Thermo Fisher, 44-2404-21). After incubating the plate at 4° C. overnight, the plate was washed three times with PBST (PBS with 0.05% Tween 20 [VWR, 0777]). The plate was then blocked for an hour with 2% BSA (EMD Millipore, 126609) in PBST at room temperature with gentle rocking. Thereafter, the 2% BSA in PBST was discarded and human Galectin-3 hybridoma supernatants or antibodies were diluted in 2% BSA in PBST to concentrations of at least 0.1 μg/ml and added to the wells. The plate was incubated for an hour at room temperature with gentle rocking and then washed three times with PBST. Afterwards, Goat Anti-Mouse IgG-HRP (Jackson ImmunoResearch, 115-036-1461) or Goat Anti-Rat IgG HRP (Abcam, ab205720) diluted in 2% BSA in PBST (1:4000) were added to the wells. The plate was incubated for 30 minutes to 1 hour at room temperature with gentle rocking and then washed three times with PBST. TMB substrate (Thermo Scientific, 34029) was then added to each well. The reaction was stopped with 1M HCl (JT Baker, 5620-02) and read using a plate reader (Molecular Devices) at absorbance of 450 nm."}, "Human Gal3 peptides [1]": {"molecular_target": "T2, Human Gal3 peptides (Homo sapiens, UniProt P17931)", "T2 construct": "purchased LifeTein custom order", "experiment": "Gal3 peptide binding ELISA (Example 8)", "settings": "antibody 5 μg/mL", "procedure": "(§1) Gal3 peptide binding activity of additional exemplary anti-Gal3 antibodies was assessed with the same peptides as described in FIG. 18 (SEQ ID NOs: 3-26). Human Gal3 peptides (LifeTein, custom order) and human Gal3 proteins (R&D Systems, 8259-GA; TrueBinding, QCB200349) were diluted in PBS (Corning, 21-030-CM) to concentrations of at least 100 μg/mL (peptides) or 1 μg/mL (proteins), and added to the wells of several 96-well ELISA plates (Thermo Fisher, 44-2404-21). After incubating the plates at 4° C. overnight, the plates were washed three times with PBST (PBS with 0.05% Tween 20 [VWR, 0777]). The plates were then blocked for an hour with 2% BSA (EMD Millipore, 126609) in PBST at room temperature with gentle rocking. Thereafter, the 2% BSA in PBST was discarded and Gal3-binding antibodies (reformatted hIgG4 [S228P]) were diluted in 2% BSA in PBST to concentrations of 5 μg/mL and added to the wells. The plates were incubated for an hour at room temperature with gentle rocking and then washed three times with PBST. Afterwards, Peroxidase AffiniPure F(ab′)2 Fragment Goat Anti-Human IgG (H+L) polyclonal antibody (Jackson ImmunoResearch, 109-036-003), was diluted in 2% BSA in PBST (1:4000) and added to the wells. The plates were incubated for 1 hour at room temperature with gentle rocking and then washed three times with PBST. TMB substrate (Thermo Scientific, 34029) was then added to each well. The reaction was stopped with 1M HCl (JT Baker, 5620-02) and read using a plate reader (Molecular Devices) at absorbance of 450 nm."}, "Human Gal3 peptides [2]": {"tested_on": "Human Gal3 peptides", "experiment": "Gal3 peptide binding ELISA (Example 8)", "settings": "antibody 5 μg/mL", "procedure": "as §1"}}, "data": [{"molecule": "B1", "values": [{"measurement": "binding to Gal3 peptide 6 (amino acids 51-70, SEQ ID NO: 8)", "setting": "hGal3 peptide", "result": "bound"}, {"measurement": "binding to Gal3 peptide 7 (amino acids 61-80, SEQ ID NO: 9)", "setting": "hGal3 peptide", "result": "bound"}]}, {"molecule": "B2", "values": [{"measurement": "binding to Gal3 peptide 1 (amino acids 1-20, SEQ ID NO: 3)", "setting": "hGal3 peptide", "result": "bound"}, {"measurement": "binding to Gal3 peptide 7 (amino acids 61-80, SEQ ID NO: 9)", "setting": "hGal3 peptide", "result": "bound"}]}, {"molecule": "B3", "values": [{"measurement": "binding to Gal3 peptide 6 (amino acids 51-70, SEQ ID NO: 8)", "setting": "hGal3 peptide", "result": "bound"}, {"measurement": "binding to Gal3 peptide 7 (amino acids 61-80, SEQ ID NO: 9)", "setting": "hGal3 peptide", "result": "bound"}]}, {"molecule": "B4", "values": [{"measurement": "binding to Gal3 peptide 7 (SEQ ID NO: 9)", "setting": "Human Gal3 peptides [1]", "result": "bound"}]}, {"molecule": "B5", "values": [{"measurement": "binding to Gal3 peptide 17 (SEQ ID NO: 19)", "setting": "Human Gal3 peptides [1]", "result": "bound"}]}, {"molecule": "B6", "values": [{"measurement": "binding to any of the tested Gal3 peptides", "setting": "Human Gal3 peptides [2]", "result": "not found to bind"}]}, {"molecule": "B7", "values": [{"measurement": "binding to any of the tested Gal3 peptides", "setting": "Human Gal3 peptides [2]", "result": "not found to bind"}]}]}
